# The inconclusive results got no clear call from the source; some entries with a clear call stand among them for comparison. For some of these results: Potencies of inconclusive entries are doubtful fits and often do not repeat. Activity calls are given as the source filed them. Unless noted, the call rests on the fitted dose curve; in most records, active means well fitted curve in the direction sought with a large enough effect; inconclusive means small, poorly fitted or top-dose-only effect, or another doubt; inactive means no such curve, though single readings can be large; an effect the other way counts as inactive or inconclusive.
# Assays:
# [1] = molecular target: Rap guanine nucleotide exchange factor 3 (Homo sapiens) (UniProt O95398); test: Confirmatory qHTS for antagonist of cAMP-regulated guanine nucleotide exchange factor 3 (EPAC1) (AID 1645880); settings: EPAC1 Rap1B-BODIPY-GDP exchange, fluorescence; series mostly up to 115 µM; further: nearly all actives have a fitted effect of over 55% in size; further: potency means the concentration at half of the fitted maximal effect
# Sequence of UniProt O95398 (O95398 whole entry, looked up): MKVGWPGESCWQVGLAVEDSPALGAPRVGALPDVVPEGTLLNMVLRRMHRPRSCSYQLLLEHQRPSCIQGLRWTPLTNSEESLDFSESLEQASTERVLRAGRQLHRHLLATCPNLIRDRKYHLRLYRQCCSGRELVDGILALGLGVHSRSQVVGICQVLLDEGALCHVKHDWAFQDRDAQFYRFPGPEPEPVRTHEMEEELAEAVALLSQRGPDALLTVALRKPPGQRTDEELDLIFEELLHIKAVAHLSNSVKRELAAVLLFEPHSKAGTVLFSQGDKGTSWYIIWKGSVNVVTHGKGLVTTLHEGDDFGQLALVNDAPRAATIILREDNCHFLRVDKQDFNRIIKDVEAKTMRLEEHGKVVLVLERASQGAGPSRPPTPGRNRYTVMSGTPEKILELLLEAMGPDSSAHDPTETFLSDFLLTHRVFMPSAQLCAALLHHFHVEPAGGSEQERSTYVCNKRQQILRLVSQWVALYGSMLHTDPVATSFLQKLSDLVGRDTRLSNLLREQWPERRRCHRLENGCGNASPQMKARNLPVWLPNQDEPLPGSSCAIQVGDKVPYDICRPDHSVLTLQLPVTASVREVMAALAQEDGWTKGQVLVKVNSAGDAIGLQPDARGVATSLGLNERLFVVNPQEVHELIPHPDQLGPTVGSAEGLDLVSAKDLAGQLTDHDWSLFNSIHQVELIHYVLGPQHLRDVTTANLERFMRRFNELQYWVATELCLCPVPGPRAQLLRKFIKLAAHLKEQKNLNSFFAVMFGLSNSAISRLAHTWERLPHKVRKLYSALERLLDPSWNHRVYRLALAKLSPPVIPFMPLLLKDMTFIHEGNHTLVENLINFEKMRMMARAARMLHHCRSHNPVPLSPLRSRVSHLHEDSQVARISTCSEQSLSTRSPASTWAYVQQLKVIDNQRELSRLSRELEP
# In short: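 Released BODIPY-GDP fluoresces less than Rap1-bound BODIPY-GDP; the signal is followed at 480/540 nm at 5-min intervals over 30 min, after 5 min at room temperature. Reactions contain 100 nM EPAC1, 250 nM RAP1B-BODIPY-GDP and 50 uM GDP; results are normalized to ATA and DMSO.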
# [2] = molecular target: Ubiquitin carboxyl-terminal hydrolase 1 (Homo sapiens) (UniProt O94782); test: Inhibitors of USP1/UAF1: Pilot qHTS (AID 504865); settings: purified USP1/UAF1, Ub-rhodamine cleavage fluorescence; series mostly up to 54.9 µM;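 further: rhodamine fluorescence freed from ubiquitin-rhodamine substrate followed over time; potency means the concentration at half of the fitted maximal effect; nearly all actives have a fitted effect of over 35% in size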
# Sequence of UniProt O94782 (O94782 whole entry, looked up): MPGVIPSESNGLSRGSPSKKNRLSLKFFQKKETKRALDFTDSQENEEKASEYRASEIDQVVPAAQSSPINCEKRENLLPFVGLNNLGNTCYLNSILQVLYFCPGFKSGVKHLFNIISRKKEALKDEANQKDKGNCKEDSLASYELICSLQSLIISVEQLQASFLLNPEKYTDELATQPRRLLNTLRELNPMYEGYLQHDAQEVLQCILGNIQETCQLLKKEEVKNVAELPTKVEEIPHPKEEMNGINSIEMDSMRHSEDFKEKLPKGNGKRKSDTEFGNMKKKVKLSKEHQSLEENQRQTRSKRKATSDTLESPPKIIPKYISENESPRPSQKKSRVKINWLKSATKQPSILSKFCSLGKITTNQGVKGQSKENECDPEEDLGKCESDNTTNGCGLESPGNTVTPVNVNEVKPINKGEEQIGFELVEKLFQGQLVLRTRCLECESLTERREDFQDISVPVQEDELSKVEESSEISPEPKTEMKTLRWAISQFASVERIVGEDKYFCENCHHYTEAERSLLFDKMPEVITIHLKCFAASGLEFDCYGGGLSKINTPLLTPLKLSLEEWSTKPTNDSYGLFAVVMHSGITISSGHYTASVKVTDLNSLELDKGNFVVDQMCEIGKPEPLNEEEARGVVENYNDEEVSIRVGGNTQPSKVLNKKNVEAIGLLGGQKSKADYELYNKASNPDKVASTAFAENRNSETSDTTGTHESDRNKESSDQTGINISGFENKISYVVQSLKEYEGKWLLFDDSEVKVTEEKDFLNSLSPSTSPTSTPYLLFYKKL
# In short: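 USP1/UAF1 complex at 1 nM preincubated 15 min at room temperature with compound, then Ub-Rho substrate added at 150 nM final. Fluorescence (480/540 nm) read kinetically in 50 mM HEPES pH 7.8, 0.5 mM EDTA, 1 mM TCEP, 0.1 mg/ml BSA, 0.01% Tween-20.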
# [3] = molecular target: Tumor susceptibility gene 101 protein (Homo sapiens) (UniProt Q99816); test: qHTS Assay for Iinhibitors of HIV-1 Budding by Blocking the Interaction of PTAP/TSG101: Hit Validation (AID 651600); settings: PTAP peptide/TSG101 UEV interaction, biochemical assay; series mostly up to 57.5 µM; further: on the % scale 0 is the no-effect control and ±100 the full control effect; nearly all actives have a fitted effect of over 70% in size
# Sequence of UniProt Q99816 (Q99816 whole entry, looked up, the tested form may be a part): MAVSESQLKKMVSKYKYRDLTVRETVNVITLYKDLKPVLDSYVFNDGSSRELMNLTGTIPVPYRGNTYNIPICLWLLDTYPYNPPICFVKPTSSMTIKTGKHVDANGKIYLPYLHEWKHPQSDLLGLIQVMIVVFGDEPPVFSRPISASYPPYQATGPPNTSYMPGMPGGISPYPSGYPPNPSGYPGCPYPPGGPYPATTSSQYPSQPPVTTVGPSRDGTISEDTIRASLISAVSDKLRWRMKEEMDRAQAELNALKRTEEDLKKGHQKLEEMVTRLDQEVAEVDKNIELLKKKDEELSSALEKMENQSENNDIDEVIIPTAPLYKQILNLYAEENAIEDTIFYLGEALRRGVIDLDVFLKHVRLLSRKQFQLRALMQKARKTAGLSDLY
# In short: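 Fluorescence polarization binding assay: Tsg101 binding domain (10 uM) mixed with compounds and FITC-labeled PTAP peptide (50 nM) in HEPES pH 7.5, 0.15 M NaCl, 0.01% Tween 20, EDTA, TCEP; 20 min at r.t.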
# [4] = molecular target: Mitogen-activated protein kinase 10 (Mus musculus) (UniProt Q61831); test: JNK3 AlphaScreen Assay (AID 530; active means well fitted curve in either direction with a large enough effect, not every such curve was filed as active; inconclusive means small, poorly fitted or top-dose-only effect, or another doubt;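 further: kinase came from lysate of stimulated human HepG2 cells; signal reports phosphorylation of biotinylated GST-cJun 1-79 at Ser73 with 10 µM ATP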; further: potency means the concentration at half of the fitted maximal effect; on activity change, negative = inhibition: on the % scale 0 is the no-effect control and ±100 the full control effect); settings: JNK3 lysate, c-Jun phosphorylation; activity change, negative = inhibition: at 57.1 µM (top of the series)
# In short: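 Phosphorylation of biotinylated GST-cJun(1-79) at Ser73 is measured by AlphaScreen proximity luminescence. Enzyme is JNK3 in HepG2 lysates activated with interleukin-1beta and tumor necrosis factor alpha; ATP is 10 uM final.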
# [5] = molecular target: Vitamin D3 receptor (Homo sapiens) (UniProt P11473); test: qHTS for Inhibitors of the vitamin D receptor (VDR): Hit Validation using a Fluorescein Assay (AID 602200); settings: VDR-coactivator binding, fluorescein fluorescence polarization; series mostly up to 57.1 µM; further: potency means the concentration at half of the fitted maximal effect
# Sequence of UniProt P11473 (P11473 whole entry, looked up, the tested form may be a part): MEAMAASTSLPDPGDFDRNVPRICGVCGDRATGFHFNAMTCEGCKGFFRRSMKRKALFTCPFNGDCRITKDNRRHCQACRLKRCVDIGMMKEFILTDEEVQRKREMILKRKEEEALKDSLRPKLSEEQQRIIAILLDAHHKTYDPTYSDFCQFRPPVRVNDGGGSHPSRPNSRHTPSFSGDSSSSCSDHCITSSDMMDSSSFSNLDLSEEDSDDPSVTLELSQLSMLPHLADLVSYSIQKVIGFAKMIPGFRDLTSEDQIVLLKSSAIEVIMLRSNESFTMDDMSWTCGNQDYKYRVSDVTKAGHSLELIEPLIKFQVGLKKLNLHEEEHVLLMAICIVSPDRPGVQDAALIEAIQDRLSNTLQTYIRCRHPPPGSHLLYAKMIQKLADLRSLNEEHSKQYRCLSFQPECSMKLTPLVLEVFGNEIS
# In short: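 Fluorescence polarization (Ex 495 nm/Em 520 nm) read after 2 h at room temperature, reporting disruption of binding between 1.5 uM VDR-LBD, liganded by 5 uM LG19078, and 5 nM fluorescein-labelled SRC2-3 coactivator peptide (final concentrations).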
# [6] = qHTS for Inhibitors of the vitamin D receptor (VDR): Hit Validation using a Texas Red Assay (AID 602201); settings: VDR coregulator binding, Texas Red fluorescence polarization, agonist-bound VDR ligand-binding domain; series mostly up to 57.1 µM; further: potency means the concentration at half of the fitted maximal effect
# In short: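 Fluorescence polarization (Ex 595/Em 615 nm) of Texas Red (7 nM) with 1.5 uM VDR-LBD and LG19078 (final concentrations). Compounds were incubated for 2 hours at room temperature.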
# [7] = molecular target: Vitamin D3 receptor (Homo sapiens) (UniProt P11473); test: qHTS for Inhibitors of the vitamin D receptor (VDR): Hit Validation in Primary Screen (AID 602199); settings: VDR-coactivator inhibition assay, qHTS confirmation; further: potency means the concentration at half of the fitted maximal effect
# In short: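 Fluorescence polarization assay of VDR binding to Alexa 647-labelled SRC2-3 coactivator peptide: 800nM VDR with 5uM LG19078 agonist, compounds, 2 h at room temperature, read Ex 620 nm/Em 688 nm.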
# [8] = qHTS for Inhibitors of the vitamin D receptor (VDR): Hit Validation using a Cytotoxicity Assay (AID 602204); settings: cytotoxicity counter-screen, cell viability; series mostly up to 48.3 µM;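 further: cells co-treated with VDR agonist LG190178 at 300 nM; potency means the concentration at half of the fitted maximal effect; nearly all actives have a fitted effect of over 75% in size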
# In short: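 Cytotoxicity is flagged by loss of ATP-dependent luminescence in cells treated 18 h with compound. Seeding density was 20,000 cells per well with 4 h pre-incubation; detection took 30 min.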
# [9] = molecular target: Cytochrome P450 3A4 (Homo sapiens) (UniProt P08684); test: qHTS Assay for Activators of Cytochrome P450 3A4 (AID 885); settings: recombinant CYP3A4, Luciferin-PPXE luminescence, 60 min; series mostly up to 57.1 µM; further: nearly all actives have a fitted effect of over 65% in size
# Sequence of UniProt P08684 (P08684 whole entry, looked up): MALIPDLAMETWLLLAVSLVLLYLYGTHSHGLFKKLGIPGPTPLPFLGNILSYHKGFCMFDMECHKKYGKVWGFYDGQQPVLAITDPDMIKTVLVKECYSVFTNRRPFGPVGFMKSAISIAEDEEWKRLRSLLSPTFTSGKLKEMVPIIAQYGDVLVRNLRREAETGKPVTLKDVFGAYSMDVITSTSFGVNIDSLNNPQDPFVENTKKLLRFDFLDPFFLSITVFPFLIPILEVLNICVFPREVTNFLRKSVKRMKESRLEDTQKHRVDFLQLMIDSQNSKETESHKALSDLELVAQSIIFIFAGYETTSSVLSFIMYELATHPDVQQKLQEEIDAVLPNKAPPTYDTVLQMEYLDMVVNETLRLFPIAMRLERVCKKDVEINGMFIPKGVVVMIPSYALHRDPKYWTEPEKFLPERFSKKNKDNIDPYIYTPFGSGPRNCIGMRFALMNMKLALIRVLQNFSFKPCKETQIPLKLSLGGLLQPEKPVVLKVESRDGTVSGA
# In short: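 Using 20nM recombinant human CYP3A4 in potassium phosphate (200mM), substrate Luciferin-PPXE at 25uM, luminescent luciferin detection followed a 60-min RT NADPH reaction; data scaled to 57 uM ketoconazole.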
# [10] = molecular target: DNA polymerase iota (Homo sapiens) (UniProt Q9UNA4); test: qHTS for Inhibitors of Polymerase Iota: Confirmatory Assay for Cherry-picked Compounds (AID 720496); settings: Pol iota primer extension, TAMRA/BHQ fluorescence; further: potency means the concentration at half of the fitted maximal effect
# Sequence of UniProt Q9UNA4 (Q9UNA4 whole entry, looked up): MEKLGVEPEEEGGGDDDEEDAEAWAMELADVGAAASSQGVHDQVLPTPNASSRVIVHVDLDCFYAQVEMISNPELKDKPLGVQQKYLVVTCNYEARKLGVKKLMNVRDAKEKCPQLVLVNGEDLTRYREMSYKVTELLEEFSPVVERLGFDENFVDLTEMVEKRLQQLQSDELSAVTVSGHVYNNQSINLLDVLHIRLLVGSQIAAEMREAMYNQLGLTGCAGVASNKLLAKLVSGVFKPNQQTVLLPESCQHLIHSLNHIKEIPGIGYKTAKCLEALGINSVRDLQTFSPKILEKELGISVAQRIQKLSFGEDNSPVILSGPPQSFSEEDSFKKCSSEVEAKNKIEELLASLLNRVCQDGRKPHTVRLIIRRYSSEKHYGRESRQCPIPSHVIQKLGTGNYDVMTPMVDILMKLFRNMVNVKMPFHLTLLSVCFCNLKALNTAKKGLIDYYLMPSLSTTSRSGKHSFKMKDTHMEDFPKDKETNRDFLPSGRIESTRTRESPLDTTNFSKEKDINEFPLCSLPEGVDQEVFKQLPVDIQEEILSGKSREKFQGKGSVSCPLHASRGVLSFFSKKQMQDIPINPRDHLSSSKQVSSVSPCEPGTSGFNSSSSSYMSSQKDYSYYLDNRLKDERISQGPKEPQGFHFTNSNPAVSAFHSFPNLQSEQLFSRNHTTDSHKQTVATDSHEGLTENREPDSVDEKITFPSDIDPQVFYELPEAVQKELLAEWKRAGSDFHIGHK
# In short: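 Using TAMRA dequenching as read-out, activity of 10 nM human Pol iota on 50 nM (final) primer/reporter/template substrate was tracked from 0 to 10 min, following a 15 min room-temperature compound preincubation.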
# [11] = NFAT Signaling Pathway (AID 444; active means well fitted curve in either direction with a large enough effect, not every such curve was filed as active; inconclusive means small, poorly fitted or top-dose-only effect, or another doubt;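 further: carbachol stimulus at about its EC50 of 1 µM final; on the % scale 0 is the no-effect control and ±100 the full control effect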); settings: Jurkat NFAT-bla M1, carbachol, beta-lactamase ratio, 5 h; at 17.2 µM (top of the series) unless noted
# In short: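 Jurkat cells carrying an NFAT-driven β-lactamase reporter and co-transfected muscarinic M1 receptor were treated with compound plus carbachol (1 uM final, an EC50 level) for 5 h at 37 °C. CCF4 loading followed for 1 h at RT; 460/530 nm ratio gave %activity.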
# [12] = qHTS Assay for Identification of Small Molecule Agonists for Hypoxia Response Element Signaling Pathway (AID 914; active means well fitted activation curve with a large enough effect in the signal ratio, with a control signal flat, not every such curve was filed as active; inconclusive means small, poorly fitted or top-dose-only effect, or effect the other way, or a change in a side signal; the % refers to the signal ratio; further: potency means the concentration at half of the fitted maximal effect); settings: ME-180 (cervical carcinoma) HRE-bla reporter, beta-lactamase ratio, CoCl2, 17 h; activation: stronger effect = higher value
# In short: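 In Opti-MEM containing 0.5% dialyzed FBS and 10 mM HEPES, ME-180 HRE-bla cells received a compound titration and EC50 CoCl2. They were incubated 17 hours, then CCF4-loaded 2.5 hours at room temperature before ratio reading.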
# [13] = molecular target: 3',5'-cyclic-AMP phosphodiesterase 4B (Homo sapiens) (UniProt Q07343); test: qHTS Assay for Inhibitors of PDE-IV (AID 607; active means well fitted activation curve with a large enough effect in the main read-out, with a control signal flat, not every such curve was filed as active; inconclusive means small, poorly fitted or top-dose-only effect, or effect the other way, or a change in a side signal; further: potency means the concentration at half of the fitted maximal effect); settings: HEK293 ACTOne CNG channel cells, membrane potential fluorescence; activation (PDE inhibition): at 22.9 µM (top of the series)
# Sequence of UniProt Q07343 (Q07343 whole entry, looked up): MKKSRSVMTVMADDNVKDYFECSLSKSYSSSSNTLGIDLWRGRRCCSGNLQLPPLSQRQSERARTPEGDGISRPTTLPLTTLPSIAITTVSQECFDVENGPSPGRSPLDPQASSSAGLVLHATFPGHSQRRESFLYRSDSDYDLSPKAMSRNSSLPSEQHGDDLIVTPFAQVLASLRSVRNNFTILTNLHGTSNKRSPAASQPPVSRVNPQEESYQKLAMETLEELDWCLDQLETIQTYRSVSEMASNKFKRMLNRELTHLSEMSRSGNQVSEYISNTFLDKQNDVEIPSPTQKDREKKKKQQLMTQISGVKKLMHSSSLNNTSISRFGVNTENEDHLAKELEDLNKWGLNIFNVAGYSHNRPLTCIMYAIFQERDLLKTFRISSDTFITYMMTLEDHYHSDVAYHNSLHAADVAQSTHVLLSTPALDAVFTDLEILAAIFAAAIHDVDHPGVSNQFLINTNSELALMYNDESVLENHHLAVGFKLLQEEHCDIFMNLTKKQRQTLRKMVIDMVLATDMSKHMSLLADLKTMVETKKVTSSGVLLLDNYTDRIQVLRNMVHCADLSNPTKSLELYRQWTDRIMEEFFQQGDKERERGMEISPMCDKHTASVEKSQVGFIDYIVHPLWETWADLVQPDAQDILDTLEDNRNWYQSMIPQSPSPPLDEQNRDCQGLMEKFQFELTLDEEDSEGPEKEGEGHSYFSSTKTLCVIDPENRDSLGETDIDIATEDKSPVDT
# In short: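 Live HEK293 cells with a modified cyclic nucleotide-gated (CNG) channel report intracellular cAMP via membrane-potential dye fluorescence (ex 535/em 590 nm). Endogenous PDE-IV was targeted. Compounds were tested at up to 22.9 uM final; RO 20-1724 100 uM served as control.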
# Tags describe the fitted curve by direction and shape or compound fluorescence and quenching.
structure (smiles),measurement,setting,value
NN=C1c2ccccc2C(=O)C1C(=O)C(c1ccccc1)c1ccccc1 (stereo not drawn),Potency,[1],active: 42.6 µM
COc1cc(C)c(C(=O)Oc2cc(C)c(C(=O)O)c(O)c2C)c(OC)c1C,Potency,[2],"inconclusive: 56.2 µM [inhibitor, partial curve, poor fit]"
same,Potency,[1],"inconclusive: 55.9 µM [inhibitor, single point]"
CC(=O)Oc1ccc2c(c1)CCC1C2CC[C@]2(C)C(OC(C)=O)CCC12 (stereo partly drawn),Potency,[2],"inconclusive: 20 µM [inhibitor, full curve]"
same,Potency,[1],inactive
Cc1cccc(C)c1-n1cccc1/C=C1\SC(=S)N(c2cccc(C(=O)O)c2)C1=O,Potency,[1],"inconclusive: 67.5 µM [inhibitor, partial curve, poor fit]"
O=C(Nc1ccc(Cl)cc1C(=O)O)c1ccc2c(c1)C(=O)N(Cc1ccco1)C2=O,Potency,[1],active: 39.8 µM
Cc1cc(C=C2C(=O)c3ccccc3C2=O)c(C)n1-c1ccc(Cl)cc1,Potency,[3],inactive
same,Potency,[1],inactive
C/C=C\C[C@@H](C)[C@@H](O)[C@H]1C(=O)N[C@@H](CC)C(=O)N(C)CC(=O)N(C)[C@@H](CC(C)C)C(=O)N[C@@H](C(C)C)C(=O)N(C)[C@@H](CC(C)C)C(=O)N[C@@H](C)C(=O)N[C@H](C)C(=O)N(C)[C@@H](CC(C)C)C(=O)N(C)[C@@H](CC(C)C)C(=O)N(C)[C@@H](C(C)C)C(=O)N1C,Potency,[4],inactive
same,Potency,[1],"inconclusive: 28 µM [inhibitor, partial curve]"
O=c1c(-c2ccccc2)coc2cc(O)cc(O)c12,Potency,[2],active: 56.2 µM
same,Potency,[1],active: 44.4 µM
O=C(/C=C/c1ccco1)NC(=S)Nc1cccc(-c2nc3ccccc3o2)c1,Potency,[1],"inconclusive: 44.7 µM [inhibitor, partial curve]"
COc1cc(/C=C(\C#N)c2nc3ccc(C)cc3[nH]2)ccc1OCc1ccc(C)cc1,Potency,[1],"inconclusive: 75.7 µM [inhibitor, partial curve, poor fit]"
Cc1[nH]n(-c2ncc(-c3ccccc3)s2)c(=O)c1C(c1ccc(Cl)cc1)C(C#N)C#N (stereo not drawn),Potency,[5],"inconclusive: 3.16 µM [inhibitor, full curve, poor fit]"
same,Potency,[6],inactive
same,Potency,[1],active: 22.4 µM
O=C(c1ccc(Cl)cc1)C(CN1CCCCC1)c1ccccc1 (stereo not drawn),Potency,[7],"inconclusive: 16.8 µM [inhibitor, partial curve]"
same,Potency,[6],"inconclusive: 15.8 µM [inhibitor, partial curve]"
same,Potency,[8],active: 18.4 µM
same,Potency,[1],active: 37.9 µM
CC(C)=CCc1c2c(c3occ(-c4ccc(O)cc4)c(=O)c3c1O)C=CC(C)(C)O2,Potency,[2],"inconclusive: 25.1 µM [inhibitor, full curve]"
same,Potency,[1],"inconclusive: 44.4 µM [inhibitor, partial curve]"
C[C@@]12C(=O)OC(=O)[C@@]1(C)[C@@H]1CC[C@@H]2O1,Potency,[4],"inconclusive: 31.6 µM [inhibitor, single point]"
same,Potency,[9],inactive
same,Potency,[1],inactive
C=CC(C1=CC(=O)C(OC)=CC1=O)c1ccccc1 (stereo not drawn),Potency,[2],active: 56.2 µM
same,Potency,[1],"inconclusive: 49.8 µM [inhibitor, partial curve]"
N#Cc1c(-c2ccccc2)nc(SCC(=O)N2c3ccccc3Sc3ccccc32)[nH]c1=O,Potency,[1],active: 19 µM
CCOc1cc(/C=N/Nc2ccc(S(=O)(=O)Nc3ccccc3C(=O)O)cc2[N+](=O)[O-])cc(Cl)c1O,Potency,[1],active: 33.8 µM
CCCCNC(=O)c1ccc2nc(-c3ccco3)c(-c3ccco3)nc2c1,Potency,[1],active: 7.94 µM
COc1ccc2c(=O)c(OC)c(-c3ccccc3)oc2c1,Potency,[2],"inconclusive: 56.2 µM [inhibitor, partial curve, poor fit]"
same,Potency,[1],inactive
COc1ccc2c(c1)c(=O)oc1c(C)c(OCc3cc(C(=O)O)oc3C)ccc12,Potency,[10],"inconclusive: 75.2 µM [inhibitor, partial curve]"
same,Potency,[1],"inconclusive: 84.9 µM [inhibitor, partial curve]"
Cc1ccc(N=C2NC(=O)/C(=C/C=C/c3ccco3)S2)cc1C,Potency,[1],active: 12.6 µM
CC(C)OC(=O)C(C#N)c1nc2ccccc2nc1N1CCCC1 (stereo not drawn),"activity change, negative = inhibition",[11],inactive: -13.2%
same,Potency,[12],"inconclusive: 0.398 µM [inhibitor, partial curve]"
same,Potency,[1],"inconclusive: 1.12 µM [inhibitor, full curve, poor fit]"
O=C(Oc1ccccc1)N1CCC2(CCCN(c3ccccc3)C2)CC1,"activity change, negative = inhibition",[11],inconclusive: -71.1% [inhibitor] [at 7.69 µM]
same,Potency,[13],"inconclusive: 12.6 µM [rising, single point]"
same,Potency,[1],inactive

# — PubChem BioAssay (NCATS)
